The list shows a part of the results.
What was measured:
Assay in all cases: glycan array binding signal (z-score within array); higher = stronger binding
Conditions in all cases: glycan notation: IUPAC condensed, linker removed
Gal6S(b1-3)GlcNAc6S = target: Gal6S(b1-3)GlcNAc6S
In short: (§1)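 The Consortium for Functional Glycomics database supplied 3228 glycan arrays, of which those lacking an available protein sequence were dropped. The binding signal, a within-array Z-score, was averaged across arrays of the same protein sequence and across linkers. Negative scores can be read as non-binding.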

Gal6S(b1-4)Glc = target: Gal6S(b1-4)Glc
In short: as §1

Gal6S(b1-4)Glc6S = target: Gal6S(b1-4)Glc6S
In short: as §1

Gal6S(b1-4)GlcNAc = target: Gal6S(b1-4)GlcNAc
In short: as §1

Gal6S(b1-4)GlcNAc6S = target: Gal6S(b1-4)GlcNAc6S
In short: as §1

GalNAc(a1-3)Gal = target: GalNAc(a1-3)Gal
In short: as §1

GalNAc(a1-3)GalNAc = target: GalNAc(a1-3)GalNAc
In short: as §1

[1] = target: GalNAc(a1-3)GalNAc(b1-3)Gal(a1-4)Gal(b1-4)Glc
In short: as §1

[2] = target: GalNAc(a1-3)GalNAc(b1-3)Gal(a1-4)Gal(b1-4)GlcNAc
In short: as §1

GalNAc(b1-3)Gal = target: GalNAc(b1-3)Gal
In short: as §1

[3] = target: GalNAc(b1-3)Gal(a1-4)Gal(b1-4)GlcNAc
In short: as §1

[4] = target: GalNAc(b1-3)Gal(a1-4)Gal(b1-4)GlcNAc(b1-3)Gal(b1-4)Glc
In short: as §1

[5] = target: GalNAc(b1-3)Gal(a1-6)Gal(b1-4)Glc
In short: as §1

GalNAc(b1-3)GalNAc = target: GalNAc(b1-3)GalNAc
In short: as §1

GalNAc(b1-4)Gal(b1-4)Glc = target: GalNAc(b1-4)Gal(b1-4)Glc
In short: as §1

GalNAc(b1-4)GlcNAc = target: GalNAc(b1-4)GlcNAc
In short: as §1

[6] = target: GalNAc(b1-4)GlcNAc(b1-2)Man(a1-3)[GalNAc(b1-4)GlcNAc(b1-2)Man(a1-6)]Man(b1-4)GlcNAc(b1-4)GlcNAc
In short: as §1

GalNAc(b1-6)GalNAc = target: GalNAc(b1-6)GalNAc
In short: as §1

Glc(a1-4)Glc = target: Glc(a1-4)Glc
In short: as §1

[7] = target: Glc(a1-4)Glc(a1-4)Glc(a1-4)Glc
In short: as §1

Glc(a1-6)Glc(a1-6)Glc = target: Glc(a1-6)Glc(a1-6)Glc
In short: as §1

[8] = target: Glc(a1-6)Glc(a1-6)Glc(a1-6)Glc
In short: as §1

Glc(b1-4)Glc = target: Glc(b1-4)Glc
In short: as §1

Glc(b1-6)Glc = target: Glc(b1-6)Glc
In short: as §1

GlcA(b1-3)Gal = target: GlcA(b1-3)Gal
In short: as §1

GlcA(b1-3)GlcNAc = target: GlcA(b1-3)GlcNAc
In short: as §1

GlcA(b1-6)Gal = target: GlcA(b1-6)Gal
In short: as §1

[9] = target: GlcNAc(a1-3)Gal(b1-4)GlcNAc
In short: as §1

[10] = target: GlcNAc(a1-4)Gal(b1-3)GlcNAc
In short: as §1

[11] = target: GlcNAc(a1-4)Gal(b1-4)GalNAc
In short: as §1

[12] = target: GlcNAc(a1-4)Gal(b1-4)GlcNAc
In short: as §1

[13] = target: GlcNAc(a1-4)Gal(b1-4)GlcNAc(b1-3)Gal(b1-4)Glc
In short: as §1

[14] = target: GlcNAc(a1-4)Gal(b1-4)GlcNAc(b1-3)Gal(b1-4)GlcNAc
In short: as §1

[15] = target: GlcNAc(a1-4)Gal(b1-4)GlcNAc(b1-3)Gal(b1-4)GlcNAc(b1-3)Gal(b1-4)GlcNAc
In short: as §1

[16] = target: GlcNAc(a1-4)Gal(b1-4)GlcNAc(b1-3)Gal(b1-4)[Fuc(a1-3)]GlcNAc(b1-3)Gal(b1-4)[Fuc(a1-3)]GlcNAc
In short: as §1

[17] = target: GlcNAc(a1-6)Gal(b1-4)GlcNAc
In short: as §1

[18] = target: GlcNAc(b1-2)Gal(b1-3)GalNAc
In short: as §1

[19] = target: GlcNAc(b1-2)Man(a1-3)[GlcNAc(b1-2)Man(a1-6)]Man(b1-4)GlcNAc(b1-4)GlcNAc
In short: as §1

[20] = target: GlcNAc(b1-2)Man(a1-3)[GlcNAc(b1-2)Man(a1-6)]Man(b1-4)GlcNAc(b1-4)[Fuc(a1-6)]GlcNAc
In short: as §1

[21] = target: GlcNAc(b1-2)Man(a1-3)[GlcNAc(b1-4)][GlcNAc(b1-2)Man(a1-6)]Man(b1-4)GlcNAc(b1-4)GlcNAc
In short: as §1

[22] = target: GlcNAc(b1-2)[GlcNAc(b1-4)]Man(a1-3)[GlcNAc(b1-2)Man(a1-6)]Man(b1-4)GlcNAc(b1-4)GlcNAc
In short: as §1

[23] = target: GlcNAc(b1-2)[GlcNAc(b1-4)]Man(a1-3)[GlcNAc(b1-4)][GlcNAc(b1-2)Man(a1-6)]Man(b1-4)GlcNAc(b1-4)GlcNAc
In short: as §1

[24] = target: GlcNAc(b1-2)[GlcNAc(b1-4)]Man(a1-3)[GlcNAc(b1-4)][GlcNAc(b1-2)[GlcNAc(b1-6)]Man(a1-6)]Man(b1-4)GlcNAc(b1-4)GlcNAc
In short: as §1

[25] = target: GlcNAc(b1-2)[GlcNAc(b1-6)]Man(a1-6)[GlcNAc(b1-2)Man(a1-3)]Man(b1-4)GlcNAc(b1-4)GlcNAc
In short: as §1

[26] = target: GlcNAc(b1-2)[GlcNAc(b1-6)]Man(a1-6)[GlcNAc(b1-2)Man(a1-3)][GlcNAc(b1-4)]Man(b1-4)GlcNAc(b1-4)GlcNAc
In short: as §1

B1: F17aG (Escherichia coli), Q99003 (protein)
chain: MTNFYKVFLAVFILVCCNISQAAVSFIGSTENDVGPSLGSYSRTHAMDNLPFVYDTRNKIGYQNANVWHISKGFCVGLDGKVDLPVVGSLDGQSIYGLTEEVGLLIWMGDTKYSRGTAMSGNSWENVFSGWCVGANTASTQGLSVRVTPVILKRNSSARYSVQKTSIGSIRMRPYNGSSAGSVQTTVNFSLNPFTLNDTVTSCRLLTPSAVNVSLAAISAGQLPSSGDEVVAGTTSLKLQCDAGVTVWATLTDATTPSNRSDILTLTGASTATGVGLRIYKNTDSTPLKFGPDSPVKGNENQWQLSTGTETSPSVRLYVKYVNTGEGINPGTVNGISTFTFSYQ
Gal6S(b1-3)GlcNAc6S
  glycan array binding signal (z-score): -0.166
Gal6S(b1-4)Glc
  glycan array binding signal (z-score): -0.252
Gal6S(b1-4)Glc6S
  glycan array binding signal (z-score): -0.195
Gal6S(b1-4)GlcNAc
  glycan array binding signal (z-score): -0.144
Gal6S(b1-4)GlcNAc6S
  glycan array binding signal (z-score): -0.172
GalNAc(a1-3)Gal
  glycan array binding signal (z-score): -0.219
GalNAc(a1-3)GalNAc
  glycan array binding signal (z-score): 0.087
[1]
  glycan array binding signal (z-score): -0.192
[2]
  glycan array binding signal (z-score): -0.159
GalNAc(b1-3)Gal
  glycan array binding signal (z-score): -0.161
[3]
  glycan array binding signal (z-score): -0.234
[4]
  glycan array binding signal (z-score): -0.179
[5]
  glycan array binding signal (z-score): -0.166
GalNAc(b1-3)GalNAc
  glycan array binding signal (z-score): 1.69
GalNAc(b1-4)Gal(b1-4)Glc
  glycan array binding signal (z-score): -0.154
GalNAc(b1-4)GlcNAc
  glycan array binding signal (z-score): -0.208
[6]
  glycan array binding signal (z-score): -0.154
GalNAc(b1-6)GalNAc
  glycan array binding signal (z-score): -0.089
Glc(a1-4)Glc
  glycan array binding signal (z-score): -0.243
[7]
  glycan array binding signal (z-score): -0.168
Glc(a1-6)Glc(a1-6)Glc
  glycan array binding signal (z-score): -0.247
[8]
  glycan array binding signal (z-score): -0.169
Glc(b1-4)Glc
  glycan array binding signal (z-score): -0.223
Glc(b1-6)Glc
  glycan array binding signal (z-score): -0.214
GlcA(b1-3)Gal
  glycan array binding signal (z-score): -0.244
GlcA(b1-3)GlcNAc
  glycan array binding signal (z-score): -0.177
GlcA(b1-6)Gal
  glycan array binding signal (z-score): -0.247
[9]
  glycan array binding signal (z-score): -0.253
[10]
  glycan array binding signal (z-score): -0.089
[11]
  glycan array binding signal (z-score): -0.148
[12]
  glycan array binding signal (z-score): -0.139
[13]
  glycan array binding signal (z-score): -0.126
[14]
  glycan array binding signal (z-score): -0.182
[15]
  glycan array binding signal (z-score): -0.151
[16]
  glycan array binding signal (z-score): -0.137
[17]
  glycan array binding signal (z-score): -0.243
[18]
  glycan array binding signal (z-score): 0.063
[19]
  glycan array binding signal (z-score): -0.203
[20]
  glycan array binding signal (z-score): -0.17
[21]
  glycan array binding signal (z-score): -0.117
[22]
  glycan array binding signal (z-score): -0.177
[23]
  glycan array binding signal (z-score): -0.161
[24]
  glycan array binding signal (z-score): -0.177
[25]
  glycan array binding signal (z-score): -0.16
[26]
  glycan array binding signal (z-score): -0.156

Source: the supplement of paper PMC8728848
